# Measured values from the supplement of paper PMC9135407.
# Where “and” joins values, the source holds several entries; their conditions need not be identical. Equal values may be shown once. Where a name gives a salt, the structure may show the parent alone. Among all 5,800 compounds or so, about 620 (11%) showed activity.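 Rule for the calls: active = score above a cut-off or among the top three wells of a plate; in these data no inactive exceeds 0.85.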 Only a part is listed here, and it is no random draw.
# Test system: primary human hepatic stellate cells (donor 1)
# Test: scaled lipid accumulation score (0 = DMSO-like, 1 = nortriptyline-like); higher = stronger HSC inactivation (lipid re-accumulation), active = hit call of the paper
# Conditions: 48 h
# [1] = library stock concentration: 10 mM
# [2] = library stock concentration: 1 mM
# [3] = library stock concentration: 3.33 mM
# [4] = library stock concentration: 6.4 mM
smiles,measurement,setting,value
O=C1C=CC(=C(c2ccc(O)cc2)c2ccc(O)cc2)C=C1 [Rosolic acid],scaled lipid accumulation score,[1],inactive: 0.399
C[C@@H](O)CCC[C@H](O)/C=C/C1=C(C/C=C\CCCC(=O)O)C(=O)CC1 [19(R)-hydroxy Prostaglandin B2],scaled lipid accumulation score,[2],inactive: ≤ 0
CN(C)CCCSc1ccccc1NC(=O)/C=C/c1ccccc1 [Cinanserin hydrochloride],scaled lipid accumulation score,[1],inactive: 0.601
CN(C)CCCSc1ccccc1NC(=O)/C=C/c1ccccc1 [Cinanserin],scaled lipid accumulation score,library stock concentration: 5.9 mM,inactive: 0.272
same,scaled lipid accumulation score,[1],inactive: ≤ 0
Cl.Cl.OCCN1CCN(CC/C=C2/c3ccccc3Sc3ccc(C(F)(F)F)cc32)CC1 [cis-(Z)-Flupenthixol dihydrochloride],scaled lipid accumulation score,[1],active: 1.01
"CC(C)(C)c1ccc(S(=O)(=O)Nc2ccc(-n3ccnc3)cc2)cc1 [Stem-Cell Factor/c-Kit Inhibitor, ISCK03]",scaled lipid accumulation score,[3],inactive: ≤ 0
COc1cc2c(cc1OC)-c1cc3ccc(OC)c(OC)c3c[n+]1CC2 [Palmatine chloride],scaled lipid accumulation score,,inactive: 0.034
same,scaled lipid accumulation score,[3],inactive: 0.003
same,scaled lipid accumulation score,[1],inactive: ≤ 0
COC(=O)[C@H]1[C@H]2C[C@@H]3c4[nH]c5cc(OC)ccc5c4CCN3C[C@H]2C[C@@H](OC(=O)c2cc(OC)c(OC)c(OC)c2)[C@@H]1OC [Reserpine],scaled lipid accumulation score,,inactive: ≤ 0
same,scaled lipid accumulation score,[1],inactive: 0.574 and inactive: 0.771
CCCCC[C@H](O)/C=C/[C@@H]1[C@@H](C/C=C\CCCCO)[C@@H](O)C[C@H]1O [Prostaglandin F2.alpha. Alcohol],scaled lipid accumulation score,[2],inactive: ≤ 0
CNC(=C[N+](=O)[O-])NCCSCc1ccc(CN(C)C)o1 [Ranitidine hydrochloride],scaled lipid accumulation score,,inactive: ≤ 0
same,scaled lipid accumulation score,[1],inactive: ≤ 0 and inactive: ≤ -0.006
CNC(=C[N+](=O)[O-])NCCSCc1ccc(CN(C)C)o1 [Ranitidine HCl],scaled lipid accumulation score,[4],inactive: ≤ 0
CNC(=C[N+](=O)[O-])NCCSCc1ccc(CN(C)C)o1 [Ranitidine],scaled lipid accumulation score,[3],inactive: ≤ 0
same,scaled lipid accumulation score,[4],inactive: ≤ 0
same,scaled lipid accumulation score,[1],inactive: 0.049 and inactive: ≤ 0
C=CCc1ccc(O)c(-c2ccc(O)c(CC=C)c2)c1 [Honokiol],scaled lipid accumulation score,[3],inactive: ≤ 0
same,scaled lipid accumulation score,[1],inactive: 0.295
O=C(O)CN(CCOCCOCCN(CC(=O)O)CC(=O)O)CC(=O)O,scaled lipid accumulation score,[1],inactive: ≤ -0.055
CC(C)C[C@H](NC(=O)[C@@H](O)[C@H](N)Cc1ccccc1)C(=O)O,scaled lipid accumulation score,[1],inactive: 0.039
CC(C)C[C@H](NC(=O)[C@@H](O)[C@H](N)Cc1ccccc1)C(=O)O [Bestatin (hydrochloride)],scaled lipid accumulation score,[2],inactive: 0.024
CC(C)C[C@H](NC(=O)[C@@H](O)[C@H](N)Cc1ccccc1)C(=O)O [Bestatin],scaled lipid accumulation score,[1],inactive: ≤ -0.006
same,scaled lipid accumulation score,library stock concentration: 16.2 mM,inactive: 0.083
CC(C)C[C@H](NC(=O)[C@@H](O)[C@H](N)Cc1ccccc1)C(=O)O [Bestatin hydrochloride],scaled lipid accumulation score,[1],inactive: 0.238
